Reference: the supplement of paper PMC7826260
The list shows a part of the results. The data describe in vitro nicking of single-stranded DNA by Rep domains (1 h at 37 °C, 3 µM enzyme); the outer parts of the 90-letter strands are left off. The score is log2 (uncut reads / reads without enzyme); the lower, the more was cut; hits are not called. Counts are relative to all reads; where an enzyme cuts many sequences, the uncut ones exceed 0.

How the values were obtained:
Assay in all cases: uncleaved DNA left, log2 of reads against the no-enzyme library (log2 ratio); higher = less cleavage (more negative = more Rep cleavage of the k-mer); sequences stand for … in CTCGTCCG…ACCGGAGA
[1] = test system: T1, Rep nickase domain of Muscovy duck circovirus
T1 sequence (residues 1-111 of Rep, tag left off): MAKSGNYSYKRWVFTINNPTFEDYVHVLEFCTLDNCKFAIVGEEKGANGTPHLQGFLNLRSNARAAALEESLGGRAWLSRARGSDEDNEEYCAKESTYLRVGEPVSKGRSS
Protocol: (§1)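 A pool of 90-nt single-stranded DNAs with seven random bases just before the constant AC of the nick site (name = the seven bases) was cut by 3 µM recombinant His6-SUMO-tagged Rep nickase domain (300 nM DNA, 50 mM HEPES pH 8.0, 50 mM NaCl, 1 mM MnCl2, 1 h, 37 °C, three replicates). Uncut DNA was amplified and sequenced.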

[2] = test system: T2, Rep nickase domain of banana bunchy top virus
T2 sequence (residues 1-94 of Rep, tag left off): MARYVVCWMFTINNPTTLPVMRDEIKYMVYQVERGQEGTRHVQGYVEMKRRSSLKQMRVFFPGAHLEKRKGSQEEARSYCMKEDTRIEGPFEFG
Protocol: as §1

[3] = test system: T3, Rep nickase domain of cabbage leaf curl virus
T3 sequence (residues 1-116 of Rep, tag left off): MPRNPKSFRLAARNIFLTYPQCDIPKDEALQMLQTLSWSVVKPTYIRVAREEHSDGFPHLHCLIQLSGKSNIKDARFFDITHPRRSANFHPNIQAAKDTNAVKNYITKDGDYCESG
Protocol: as §1

[4] = test system: T4, Rep nickase domain of chickpea chlorotic dwarf virus
T4 sequence (residues 1-124 of Rep, tag left off): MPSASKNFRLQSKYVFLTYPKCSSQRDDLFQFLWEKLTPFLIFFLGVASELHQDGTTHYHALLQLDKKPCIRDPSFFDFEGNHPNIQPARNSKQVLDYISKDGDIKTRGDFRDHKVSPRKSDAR
Protocol: as §1

[5] = test system: T5, Rep nickase domain of faba bean necrotic yellows virus
T5 sequence (residues 1-98 of Rep, tag left off): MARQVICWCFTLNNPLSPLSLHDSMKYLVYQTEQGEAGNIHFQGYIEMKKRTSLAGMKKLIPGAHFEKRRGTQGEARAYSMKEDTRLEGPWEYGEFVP
Protocol: as §1

[6] = test system: T6, Rep nickase domain of maize striate mosaic virus
T6 sequence (residues 1-117 of Rep, tag left off): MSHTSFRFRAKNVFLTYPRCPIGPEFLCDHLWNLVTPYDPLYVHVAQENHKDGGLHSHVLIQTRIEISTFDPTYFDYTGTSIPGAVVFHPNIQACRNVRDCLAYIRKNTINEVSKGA
Protocol: as §1

[7] = test system: T7, Rep nickase domain of porcine circovirus 2
T7 sequence (residues 2-116 of Rep, tag left off): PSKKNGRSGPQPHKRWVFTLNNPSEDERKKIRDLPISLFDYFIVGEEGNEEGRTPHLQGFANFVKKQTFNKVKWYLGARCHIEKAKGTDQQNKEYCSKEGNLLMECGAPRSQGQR
Protocol: as §1

[8] = test system: T8, Rep nickase domain of tomato yellow leaf curl virus
T8 sequence (residues 1-136 of Rep, tag left off): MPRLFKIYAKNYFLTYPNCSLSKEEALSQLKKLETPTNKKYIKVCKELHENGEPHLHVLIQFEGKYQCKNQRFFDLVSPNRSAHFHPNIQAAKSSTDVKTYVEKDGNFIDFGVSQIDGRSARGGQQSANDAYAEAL
Protocol: as §1

[9] = test system: T9, Rep nickase domain of wheat dwarf virus
T9 sequence (residues 1-137 of Rep, tag left off): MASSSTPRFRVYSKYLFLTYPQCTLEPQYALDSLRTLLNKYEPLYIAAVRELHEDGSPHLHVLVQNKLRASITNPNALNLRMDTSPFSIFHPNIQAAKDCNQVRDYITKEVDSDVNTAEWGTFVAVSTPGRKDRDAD
Protocol: as §1

| Sequence | uncleaved DNA left (log2) [1] | uncleaved DNA left (log2) [2] | uncleaved DNA left (log2) [3] | uncleaved DNA left (log2) [4] | uncleaved DNA left (log2) [5] | uncleaved DNA left (log2) [6] | uncleaved DNA left (log2) [7] | uncleaved DNA left (log2) [8] | uncleaved DNA left (log2) [9] |
| --- | --- | --- | --- | --- | --- | --- | --- | --- | --- |
| CTTGCCT | 0.0194 | -0.0916 | -0.465 | -1.51 | 0.0887 | -1.11 | -0.272 | 0.0949 | -0.0901 |
| CACCCAT | -0.176 | -0.248 | -0.594 | -2.34 | -0.187 | -1.2 | -0.832 | -0.15 | -0.0641 |
| GAATAAC | 0.0838 | 0.00565 | -0.501 | -1.06 | 0.0904 | 0.348 | 0.0826 | -0.0511 | -0.0151 |
| GACTCTC | -0.0739 | -0.117 | 0.177 | 0.259 | -0.088 | 0.585 | -2.64 | 0.0286 | -0.0609 |
| TATGAGT | 0.0669 | -0.0675 | -0.717 | -1.57 | -0.0418 | -1.05 | -0.198 | -0.0144 | -0.0639 |
| TTAAGTG | -0.0375 | -0.139 | -0.69 | -1.03 | -0.0521 | -1.22 | 0.0861 | -0.0468 | -0.164 |
| ATAGCGT | -0.0895 | -0.173 | -1.03 | -0.451 | -0.165 | -0.979 | 0.0151 | -0.104 | -0.155 |
| ACTGTAA | -0.155 | -0.041 | -0.138 | 0.103 | -0.0647 | 0.0977 | 0.0393 | -0.0327 | 0.0646 |
| ATTACCT | -0.235 | -0.11 | -0.224 | -2.7 | -0.0226 | -0.389 | -2.78 | -0.0673 | 0.0948 |
| CCTGGGG | 0.151 | 0.262 | 0.361 | 0.683 | 0.0815 | 0.423 | 0.226 | 0.0302 | 0.069 |
| GATGATC | -0.0275 | -0.0834 | 0.135 | 0.459 | -0.0861 | 0.702 | 0.0887 | -0.0928 | -0.0798 |
| CTCAAGT | -0.139 | 0.00899 | 0.0697 | -0.238 | 0.01 | -0.955 | -0.0189 | -0.0635 | 0.00321 |
| CACGCCT | -0.231 | -0.229 | -0.773 | -2.5 | -0.111 | -0.841 | -0.354 | -0.077 | -0.24 |
| GAAGTCC | 0.0747 | 0.0923 | 0.247 | 0.335 | 0.0389 | 0.726 | 0.066 | 0.127 | 0.117 |
| AACGGGG | 0.151 | 0.0892 | 0.841 | 1.38 | 0.122 | 2 | 0.337 | -0.0512 | 0.203 |
| CCCAAAC | -0.0349 | -0.0737 | 0.0775 | -0.47 | 0.0679 | -0.711 | 0.108 | -0.0165 | -0.012 |
| AGGACCA | 0.0267 | 0.121 | 0.42 | 1.01 | -0.00841 | 1.55 | 0.0825 | 0.0237 | 0.162 |
| TAAATAG | 0.0223 | -0.0154 | -1.17 | -1.77 | 0.0446 | -1.39 | 0.173 | -0.0507 | -0.0889 |
| AAAACTA | -0.0188 | -0.00912 | -0.252 | -2.34 | -0.0178 | -0.587 | -0.136 | 0.0092 | -0.0511 |
| GGCGTGA | 0.126 | -0.00228 | 0.297 | 0.924 | -0.0966 | 1.26 | 0.162 | -0.00563 | 0.0108 |
| AACGCCC | -0.0059 | -0.0516 | -0.137 | -0.405 | -0.0881 | -0.246 | -0.138 | -0.16 | -0.0141 |
| GGAATGA | 0.0471 | 0.154 | 0.762 | 1.54 | -0.00649 | 1.92 | 0.222 | 0.0789 | 0.142 |
| GGCTATG | -0.00933 | -0.0858 | 0.176 | 0.645 | -0.128 | 1.24 | -0.00195 | -0.0173 | 0.000487 |
| CGGGGCG | -0.106 | -0.0391 | -0.624 | 0.352 | -0.165 | -0.17 | 0.116 | -0.0634 | -0.0607 |
| ATACAGG | 0.015 | 0.0177 | 0.136 | 0.618 | -0.0383 | -0.0853 | 0.207 | -0.092 | -0.0267 |
| CGGATGA | 0.0952 | 0.0227 | 0.0927 | 0.807 | -0.149 | 1.39 | 0.0974 | -0.13 | 0.0716 |
| TGGATCA | 0.0597 | 0.13 | 0.586 | 1.12 | -0.0193 | 1.55 | 0.0999 | 0.0946 | 0.136 |
| ATTCGCA | -0.076 | -0.0711 | -0.671 | -1.24 | -0.0238 | -1.15 | -0.122 | -0.071 | -0.0794 |
| GTATCTT | -0.536 | -0.0331 | 0.186 | 0.559 | 0.00608 | 1.74 | -0.649 | -0.0411 | -0.0148 |
| TCCCACT | 0.015 | -0.194 | -0.0806 | -2.15 | -0.0501 | -0.508 | -0.28 | -0.244 | -0.126 |
